Publication PMC4336329 (PLoS ONE, 2015)
Out of some 310,000 compounds screened, about 2,200 (0.71%) showed an effect of 50% or more. The effect is printed as a negative number. Some of the results follow. Where a SMILES comes first, the peptide text is derived from it. The star is where a group is joined. Boc = CC(C)(C)OC(=O)*; Bn = c1ccc(C*)cc1

Biological target: human ether-à-go-go-related gene (hERG) potassium channel (human, UniProt Q12809)
Test: primary screen, population patch clamp on CHO cells stably expressing hERG

Sequence of human ether-à-go-go-related gene (hERG) potassium channel (Q12809 whole entry, looked up): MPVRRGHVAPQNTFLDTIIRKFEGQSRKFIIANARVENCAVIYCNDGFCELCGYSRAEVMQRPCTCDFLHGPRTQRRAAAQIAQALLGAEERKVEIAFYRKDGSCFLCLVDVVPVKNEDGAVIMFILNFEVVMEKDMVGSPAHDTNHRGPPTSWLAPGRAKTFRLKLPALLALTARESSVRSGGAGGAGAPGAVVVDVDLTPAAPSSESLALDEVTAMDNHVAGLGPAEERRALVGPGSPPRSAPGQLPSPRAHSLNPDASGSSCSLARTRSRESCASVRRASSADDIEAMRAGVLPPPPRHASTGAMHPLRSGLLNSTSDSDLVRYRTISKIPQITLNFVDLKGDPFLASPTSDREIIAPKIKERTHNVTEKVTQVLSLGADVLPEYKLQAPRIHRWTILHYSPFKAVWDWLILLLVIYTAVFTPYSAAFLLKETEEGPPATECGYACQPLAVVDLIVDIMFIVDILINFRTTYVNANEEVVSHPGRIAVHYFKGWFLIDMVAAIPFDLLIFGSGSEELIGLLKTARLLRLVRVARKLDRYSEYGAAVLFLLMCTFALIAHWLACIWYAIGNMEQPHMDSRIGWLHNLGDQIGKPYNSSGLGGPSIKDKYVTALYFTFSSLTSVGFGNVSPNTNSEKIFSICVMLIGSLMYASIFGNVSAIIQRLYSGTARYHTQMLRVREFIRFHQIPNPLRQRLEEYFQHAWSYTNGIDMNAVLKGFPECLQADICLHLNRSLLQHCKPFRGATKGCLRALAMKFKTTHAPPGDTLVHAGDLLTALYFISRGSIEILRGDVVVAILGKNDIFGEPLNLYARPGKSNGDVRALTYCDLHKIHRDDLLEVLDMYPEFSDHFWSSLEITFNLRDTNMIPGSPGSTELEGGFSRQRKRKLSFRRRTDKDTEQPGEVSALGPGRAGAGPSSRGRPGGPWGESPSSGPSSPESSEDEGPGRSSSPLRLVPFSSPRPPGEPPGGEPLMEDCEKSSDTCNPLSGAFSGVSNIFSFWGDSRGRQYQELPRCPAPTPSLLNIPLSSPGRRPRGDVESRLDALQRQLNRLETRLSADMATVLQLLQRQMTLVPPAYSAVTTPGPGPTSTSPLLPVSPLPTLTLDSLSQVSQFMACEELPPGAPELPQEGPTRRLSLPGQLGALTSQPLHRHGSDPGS

Compound	hERG current change (%, negative = inhibition) at 1uM [%]
NC(=O)Nc1ccc(C(=O)OCC(=O)NCc2ccc3c(c2)OCO3)cc1	10.4
CC(=O)c1cccc(NC(=O)COC(=O)c2ccc(S(C)(=O)=O)c([N+](=O)[O-])c2)c1	14.7
CC(=O)C1C(=O)CC(c2ccc(Cl)cc2)CC1=O (centres unmarked)	13.2
Cc1nc(Nc2nc3ccccc3o2)nc2c1CCC2	19
O=C(O)c1ccc(N2C(=O)c3cccc(Oc4ccc(Cl)cc4)c3C2=O)cc1	-14.2
COc1ccccc1C(=O)NC(=O)COC(=O)C1CCC1	3.17
CCOC(=O)c1c(NC(=O)c2noc(C)c2[N+](=O)[O-])sc(C(C)=O)c1C	10.3
CCOc1ccc(NC(=O)CSc2nnc(CNC(=O)c3ccco3)o2)cc1	-0.25
COc1ccccc1CNc1nc2nc(C)c(C)c(=O)n2[nH]1	8.46
CC(=O)NC1C(OCc2ccccc2)OC2COC(c3ccccc3)OC2C1OCC(=O)O (centres unmarked)	19
COc1cc2c3c(c1OC)-c1cc(O)ccc1CC3NCC2.Cl (centres unmarked)	-13.7
N#CCCn1c(C(C#N)(CCC#N)CCC#N)nc2ccccc21	15.9
COCCCNC(=O)C1CCCCN1S(=O)(=O)c1ccc(F)cc1 (centres unmarked)	11
Cc1cc(=O)n2nc(N3CCC(C(=O)NCCc4ccc(Cl)cc4)CC3)sc2n1	0.822
Cc1ccc(C(=O)c2nc(C(=O)NCCO)nc3ccccc23)cc1	16.5
CC1Cc2ccccc2N1S(=O)(=O)c1cccc2nsnc12 (centres unmarked)	6.02
COCCn1cnc2c1c(=O)n(CC(=O)NCC(F)(F)F)c(=O)n2Cc1ccccc1	14.4
Cc1nc(SCC(=O)Nc2cc(C)on2)c2c(=O)n(C)c(=O)n(C)c2n1	13.2
CN1CCN(c2ccccc2NC(=O)c2c(F)cccc2F)CC1	2.83
COc1ccc(/C=C/C(=O)Nc2sc3c(c2C(=O)NCc2cccnc2)CCCC3)cc1	7.55
Cn1c(CC(=O)Nc2ccc(F)cc2)c(Sc2ccccc2)c2ccccc21	8.32
COc1ccc(NS(=O)(=O)c2ccc(C)c(C(=O)NNC(=O)c3csc(N4CCOCC4)n3)c2)cc1	6.79
Cc1ccc(C(=O)Nc2ccc3c(c2)C(=O)NC3=O)cc1	18.8

Compound	hERG current change (%, negative = inhibition) at 1uM [%]
CC(C)C[C@H](NC(=O)N1CCn2c1nc1ccccc12)C(=O)NCC1CCCO1 (some centres unmarked)	16.8
Cc1ccc(C)c2nc(Cl)c(C#N)cc12	13
O=[N+]([O-])c1cc(S(=O)(=O)NCCN2CCOCC2)ccc1Cl	16.2
COc1ccc(NC(=O)Nc2cccc(OC)c2)cc1	-2.63
Cc1ccc(/C=N/n2c(COc3ccccc3)n[nH]c2=S)s1	11.3
COc1ccc(C)cc1Nc1n[n+](-c2ccccc2)c(-c2c(Cl)cccc2Cl)s1.[Cl-]	-4.42
O=C(COc1ccccc1)NCCSCc1ccc(Cl)cc1	8.48
COC(=O)c1ccc(CN(C(C)=O)c2ccccc2)o1	13.6
Cc1ccc(C(C(=O)NCCc2ccccc2)N(C(=O)c2csnn2)C2CC2)cc1 (centres unmarked)	7.1
CCOC(=O)C(Cc1ccccc1)NC(=O)CCc1nnc2ccc(N3CCCCC3)nn12 (centres unmarked)	15.5
CCOC(=O)c1ccc(CC2S/C(=C(\C#N)C(C)=O)NC2=O)cc1 (centres unmarked)	1.89
COc1cc(C2c3c(-c4cc(Cl)c(C)cc4O)n[nH]c3C(=O)N2Cc2cccnc2)ccc1O (centres unmarked)	8.71
CCCNc1nc2c(c(=O)[nH]c(=O)n2C)n1CCCc1ccccc1	12.9
COC(=O)c1ccc(COC(=O)c2ccc(SC)cc2OC)cc1	10.4
COc1ccccc1-c1ccc(=O)n(CC(=O)NCC2CCCO2)n1.Cl (centres unmarked)	2.84
O=C(Cc1c(F)c(F)c(F)c(F)c1F)OC12CC3CC(C1)C(=O)C(C3)C2	6.32
CCc1cc2c(Nc3ccccc3O)nc(C)nc2s1.Cl	17.2
c1ccc2c(c1)NC(CN1CCOCC1)CO2 (centres unmarked)	3.87
CS(=O)(=O)Oc1ccc(/C=C2\C(=N)N3N=C(CC(=O)N4CCOCC4)SC3=NC2=O)cc1Cl	9.94
OC(CN1CCN(c2cccc(Cl)c2)CC1)c1ccc(F)cc1 (centres unmarked)	-0.326
CCOC(=O)COc1ccc(C(c2c(C)[nH][nH]c2=O)c2c(C)[nH][nH]c2=O)cc1	12.5
Cc1ccc2nc(SCC3CCCCO3)[nH]c2c1 (centres unmarked)	-0.485
Clc1cc(CSc2ccccc2)nc(-c2ccccc2)n1	2.47

Compound	hERG current change (%, negative = inhibition) at 1uM [%]
CCC(=O)n1nc(-c2cccnc2)nc1NCc1ccc(OC)cc1	7.01
CCOC(=O)C1=C(COc2ccc(F)cc2Cl)NC(=O)NC1c1cc(C)ccc1C (centres unmarked)	11.4
NC(=O)COC(=O)CSc1cccc2cccc(Cl)c12	16.6
Oc1cc(Cc2ccccc2)cnc1CN1CCCCC1	10.2
CC(=O)Nc1nnc(-c2ccccn2)o1	11.7
Clc1ccc(CSc2ccc(-c3ccccn3)nn2)cc1	-3.52
CN(CC(=O)NC(=O)NC1CCCCC1)c1ccccc1	11.7
O=C(CSc1nnc(NC(=O)c2ccccc2F)s1)NCc1ccco1	15.4
COc1ccc(NC(=S)N2CCC(NC(=O)c3ccco3)CC2)cc1	14.2
COCCn1c(C)cc(C(=O)CSc2nnc3ccccn23)c1C	8.95
O=C(Nc1ccccc1)c1ccc[nH]1	12.8
O=C(NCCc1ccccc1)c1cc(S(=O)(=O)N2CCOCC2)ccc1F	7.31
COc1cc(C(=O)NCCOc2ccc(F)cc2)c(Br)c(OC)c1OC	3.73
CC(Oc1ccccc1)c1ccnc2nc(/N=C/N(C)C)nn12 (centres unmarked)	14
COC(=O)c1ccc2[nH]ccc2c1	1.03
CCOC(=O)C1CCCN(C(=O)COc2ccc(N(C)S(=O)(=O)c3ccc(C)cc3)cc2)C1 (centres unmarked)	0.084
COc1ccccc1NC(=S)N1C2CCC1CC(NC(=O)NC13CC4CC(CC(C4)C1)C3)C2 (centres unmarked)	-25.2
Cc1cccc(Oc2ccc(NC(=O)c3ccccc3C(=O)O)cc2)c1	6.74
COc1cc2[nH]c(=O)n(Cc3ccc(C(=O)NCCCN4CCC(C)CC4)cc3)c(=O)c2cc1OC	5
S=C(NCCc1ccccn1)NC1CC2CCC1C2 (centres unmarked)	14.1
O=C1CCCCC1c1cccc2ccccc12 (centres unmarked)	4.46
CCC(C(=O)Nc1nccs1)c1ccccc1 (centres unmarked)	15.2
CCOCCCNC(=O)c1cc(-c2ccc(Br)s2)nc2ccccc12	9.96

Compound	hERG current change (%, negative = inhibition) at 1uM [%]
Cc1ccc[n+](CC(O)Cn2c3ccccc3c3ccccc32)c1.[O-][Cl+3]([O-])([O-])[O-] (centres unmarked)	10.8
Cn1c(CC(=O)c2ccc(Br)cc2)[n+](C)c2ccccc21.[Cl-]	5.8
O=C(Cc1cc(=O)[nH][nH]1)N/N=C/c1ccccc1Cl	11.3
COc1ccccc1S(=O)(=O)Cc1ccc(C(=O)NCc2cccs2)o1	-15.6
Cc1cccc(NC(=O)COC(=O)CCc2c[nH]c3ccccc23)c1C	-3.73
CN(C)CCCNC(=O)c1ccc(Cl)c(S(=O)(=O)N2CCCCCC2)c1.Cl	-70
COc1ccc(-n2cnnc2SCC(=O)Nc2ccc(C(N)=O)cc2)cc1	12.2
Cc1cc(C)cc(N(CC(=O)NC(C)(C)C)C(=O)CCC(=O)Nc2ccccn2)c1	7.93
O=C(Cn1c(C(=O)OCCO)cc2ccccc21)c1ccccc1	12.3
CCOc1cc(C2C3=C(CC(C)(C)CC3=O)N(CCOC)C3=C2C(=O)CC(C)(C)C3)ccc1OC	6.13
O=C(O)CN1C(=O)c2ccc(C(=O)c3ccccc3)cc2C1=O	10.9
CC1CCCc2sc3nc(NCc4ccco4)n4ncnc4c3c21 (centres unmarked)	11.6
CCCCn1c(=O)[nH]c(=O)c2c1nc(CN(C)Cc1cccc(OC)c1OC)n2CCC.O=C(O)C(=O)O	11.6
CC1=NN(c2ccc(Br)cc2)C(=O)/C1=C/c1ccc(-c2ccccc2C(=O)O)o1	14
CC(C)CC(NC(=O)C(NC(=O)C(Cc1ccc(OCc2ccccc2)cc1)NC(=O)OC(C)(C)C)C(C)C)C(N)=O (stereo not drawn) (Boc-Tyr(Bn)-Val-Leu-NH2; configuration not given here)	4.92
CCOC(=O)c1ccc(NC(=O)NCCN2CCCCC2)cc1	-10.5
N[C@@H](Cc1ccccc1)c1nnc2sc(SCc3ccccc3)nn12	-2.28
COc1cc(/C=C(\CC(=O)O)c2nc3ccccc3s2)cc(OC)c1O	9.4
CCCCNC(=O)NCCN1CCOCC1	26.8
C=CCNC(=O)CN(c1cccc(Br)c1)S(C)(=O)=O	-6.39
